Results from the supplement of paper PMC8948288.
Shown are siRNA guide strands that differ only in the seed, positions 2 to 7.

Assays:
H4 = test: cell viability relative to siNT1 (ATP content); H4 human neuroglioma and GL261 mouse glioma; higher = less toxic; settings: siRNA concentration 10 nM; 96 h; human
Description: (§1)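 Arrayed screen of all 4096 6mer seeds. Each seed sits at guide-strand positions 2-7 of a neutral 19mer siRNA backbone (siNT1-based, passenger strand 2'-O-methyl modified at positions 1-2 to block RISC loading, 3' DNA overhangs). The guide strand is built here as U + seed + ACAUGUAAACCA. Cells were reverse transfected in triplicate in 384-well plates (H4 at 10 nM, GL261 at 25 nM) with Lipofectamine RNAiMAX. Viability was read as ATP content (CellTiter-Glo) 96 h after transfection and normalised to siNT1 (%).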

GL261 = test: as above; settings: siRNA concentration 25 nM; 96 h; mouse
Description: as §1
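Further: cells reverse transfected with siRNA duplexes via lipid reagent, ATP read by luminescence, triplicate wells, values scaled to mean viability with non-targeting control siNT1.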

| Sequence | cell viability (H4) [%] | cell viability (GL261) [%] |
| --- | --- | --- |
| UAAAGUUACAUGUAAACCA | 101 | 41.4 |
| UAAAUAAACAUGUAAACCA | 86.5 | 68.1 |
| UAAAUACACAUGUAAACCA | 70.2 | 55 |
| UAAAUAGACAUGUAAACCA | 112 | 62 |
| UAAAUAUACAUGUAAACCA | 115 | 63.1 |
| UAAAUCAACAUGUAAACCA | 109 | 66.8 |
| UAAAUCCACAUGUAAACCA | 79.6 | 24.5 |
| UAAAUCGACAUGUAAACCA | 92.2 | 75 |
| UAAAUCUACAUGUAAACCA | 90.4 | 60.2 |
| UAAAUGAACAUGUAAACCA | 72.5 | 55.2 |
| UAAAUGCACAUGUAAACCA | 34.9 | 22.1 |
| UAAAUGGACAUGUAAACCA | 76.2 | 43.7 |
| UAAAUGUACAUGUAAACCA | 68.9 | 51.7 |
| UAAAUUAACAUGUAAACCA | 96.3 | 73.8 |
| UAAAUUCACAUGUAAACCA | 71.7 | 47.8 |
| UAAAUUGACAUGUAAACCA | 77.8 | 58.3 |
| UAAAUUUACAUGUAAACCA | 92.2 | 72.6 |
| UAACAAAACAUGUAAACCA | 106 | 53.2 |
| UAACAACACAUGUAAACCA | 114 | 41.4 |
| UAACAAGACAUGUAAACCA | 99 | 47.5 |
| UAACAAUACAUGUAAACCA | 110 | 59.7 |
| UAACACAACAUGUAAACCA | 118 | 30.8 |
| UAACACCACAUGUAAACCA | 73.7 | 23.5 |

| Sequence | cell viability (H4) [%] | cell viability (GL261) [%] |
| --- | --- | --- |
| UAACACGACAUGUAAACCA | 96.1 | 38.8 |
| UAACACUACAUGUAAACCA | 80.8 | 30.1 |
| UAACAGAACAUGUAAACCA | 114 | 55.5 |
| UAACAGCACAUGUAAACCA | 63.9 | 13.4 |
| UAACAGGACAUGUAAACCA | 92.5 | 52.4 |
| UAACAGUACAUGUAAACCA | 81 | 38.8 |
| UAACAUAACAUGUAAACCA | 101 | 33.7 |
| UAACAUCACAUGUAAACCA | 72.8 | 18.6 |
| UAACAUGACAUGUAAACCA | 111 | 50.7 |
| UAACAUUACAUGUAAACCA | 101 | 53.7 |
| UAACCAAACAUGUAAACCA | 122 | 85.9 |
| UAACCACACAUGUAAACCA | 97.2 | 61.6 |
| UAACCAGACAUGUAAACCA | 77.7 | 60.5 |
| UAACCAUACAUGUAAACCA | 99.6 | 57.4 |
| UAACCCAACAUGUAAACCA | 87.4 | 78.3 |
| UAACCCCACAUGUAAACCA | 2.63 | 22.9 |
| UAACCCGACAUGUAAACCA | 121 | 59.2 |
| UAACCCUACAUGUAAACCA | 81.1 | 53.6 |
| UAACCGAACAUGUAAACCA | 106 | 55.8 |
| UAACCGCACAUGUAAACCA | 87.5 | 66.6 |
| UAACCGGACAUGUAAACCA | 89.6 | 44 |
| UAACCGUACAUGUAAACCA | 90.1 | 61.2 |
| UAACCUAACAUGUAAACCA | 94 | 63.1 |

| Sequence | cell viability (H4) [%] | cell viability (GL261) [%] |
| --- | --- | --- |
| UAACCUCACAUGUAAACCA | 90.9 | 18.4 |
| UAACCUGACAUGUAAACCA | 102 | 50.1 |
| UAACCUUACAUGUAAACCA | 102 | 55 |
| UAACGAAACAUGUAAACCA | 119 | 58 |
| UAACGACACAUGUAAACCA | 110 | 40.4 |
| UAACGAGACAUGUAAACCA | 116 | 60.4 |
| UAACGAUACAUGUAAACCA | 117 | 56.5 |
| UAACGCAACAUGUAAACCA | 98.1 | 47.1 |
| UAACGCCACAUGUAAACCA | 91.8 | 59.1 |
| UAACGCGACAUGUAAACCA | 105 | 63.6 |
| UAACGCUACAUGUAAACCA | 118 | 56.1 |
| UAACGGAACAUGUAAACCA | 111 | 48.3 |
| UAACGGCACAUGUAAACCA | 82.4 | 16.6 |
| UAACGGGACAUGUAAACCA | 81.4 | 51.8 |
| UAACGGUACAUGUAAACCA | 92 | 29.8 |
| UAACGUAACAUGUAAACCA | 86.8 | 80.3 |
| UAACGUCACAUGUAAACCA | 98.9 | 53.2 |
| UAACGUGACAUGUAAACCA | 118 | 58 |
| UAACGUUACAUGUAAACCA | 111 | 73.9 |
| UAACUAAACAUGUAAACCA | 84.5 | 67.1 |
| UAACUACACAUGUAAACCA | 106 | 48.2 |
| UAACUAGACAUGUAAACCA | 113 | 57 |
| UAACUAUACAUGUAAACCA | 116 | 78 |

| Sequence | cell viability (H4) [%] | cell viability (GL261) [%] |
| --- | --- | --- |
| UAACUCAACAUGUAAACCA | 121 | 40.2 |
| UAACUCCACAUGUAAACCA | 69.5 | 18.8 |
| UAACUCGACAUGUAAACCA | 95.6 | 32.9 |
| UAACUCUACAUGUAAACCA | 71.7 | 26.1 |
| UAACUGAACAUGUAAACCA | 104 | 56.6 |
| UAACUGCACAUGUAAACCA | 65.7 | 22.6 |
| UAACUGGACAUGUAAACCA | 58.5 | 38.9 |
| UAACUGUACAUGUAAACCA | 83.5 | 19.2 |
| UAACUUAACAUGUAAACCA | 111 | 58.3 |
| UAACUUCACAUGUAAACCA | 76 | 36.3 |
| UAACUUGACAUGUAAACCA | 98.5 | 58.9 |
| UAACUUUACAUGUAAACCA | 107 | 57.2 |
| UAAGAAAACAUGUAAACCA | 114 | 60.3 |
| UAAGAACACAUGUAAACCA | 111 | 20.4 |
| UAAGAAGACAUGUAAACCA | 88.9 | 55.3 |
| UAAGAAUACAUGUAAACCA | 79.5 | 69.7 |
| UAAGACAACAUGUAAACCA | 76.3 | 36.6 |
| UAAGACCACAUGUAAACCA | 80.7 | 21.6 |
| UAAGACGACAUGUAAACCA | 116 | 43.9 |
| UAAGACUACAUGUAAACCA | 99.1 | 23.1 |
| UAAGAGAACAUGUAAACCA | 99.2 | 46.7 |
| UAAGAGCACAUGUAAACCA | 73.8 | 33 |
| UAAGAGGACAUGUAAACCA | 79.5 | 28.9 |

| Sequence | cell viability (H4) [%] | cell viability (GL261) [%] |
| --- | --- | --- |
| UAAGAGUACAUGUAAACCA | 105 | 37.1 |
| UAAGAUAACAUGUAAACCA | 122 | 50.2 |
| UAAGAUCACAUGUAAACCA | 98.5 | 64.3 |
| UAAGAUGACAUGUAAACCA | 97.4 | 39.7 |
| UAAGAUUACAUGUAAACCA | 122 | 36.6 |
| UAAGCAAACAUGUAAACCA | 91.1 | 48.4 |
| UAAGCACACAUGUAAACCA | 72.5 | 42 |
| UAAGCAGACAUGUAAACCA | 107 | 62.1 |
| UAAGCAUACAUGUAAACCA | 97.5 | 52.2 |
| UAAGCCAACAUGUAAACCA | 97.2 | 62.8 |
| UAAGCCCACAUGUAAACCA | 87.1 | 29.6 |
| UAAGCCGACAUGUAAACCA | 89.5 | 46.7 |
| UAAGCCUACAUGUAAACCA | 81.2 | 46.4 |
| UAAGCGAACAUGUAAACCA | 104 | 49.2 |
| UAAGCGCACAUGUAAACCA | 89.7 | 42.5 |
| UAAGCGGACAUGUAAACCA | 120 | 47.2 |
| UAAGCGUACAUGUAAACCA | 118 | 53.6 |
| UAAGCUAACAUGUAAACCA | 107 | 54.8 |
| UAAGCUCACAUGUAAACCA | 125 | 19.1 |
| UAAGCUGACAUGUAAACCA | 103 | 43.2 |
| UAAGCUUACAUGUAAACCA | 97.6 | 47.8 |
